B1: chr19:56882518:56882519:-_ENSMUSG00000035173_ENSMUST00000118592|mus_hu|motif|central (ssRNA)
RNA: GGGAGUUCUACAGUCCGACGAUCCUGAGAAAGCUGCUUAAUUUUGUUAGUGUUUUUCUCAAGUUCCUUAUUUGCAUCUCGGAGUUUUUUCUCAAGUGUCUCUUUUUCCUUUCGAAGAUCUAAAGAUUCCUUCUCACCUCUUACCAACAGAGGAUUGAGCAUCA
B2: chr2:179515052:179515053:+_ENSMUSG00000000305_ENSMUST00000000314|mus_hu|mus_mus_mus_hu_False|88_108 (ssRNA)
RNA: GGGAGUUCUACAGUCCGACGAUCGCUUUCCCGCGCAGUCACCGUGAAGGCCACCUGCUCGGAGGGGACCUGCAGCUCCCGGGUGGCGAAGACUGUCCCAUCUGCCCCAACUUUGAAGUCCAUGCUGUUGGUCUCAUAUUGUGUCAACAGAGGAUUGAGCAUCA
B3: chr8:104447970:104447971:+_ENSG00000164934_ENST00000297579|hu_hu|hu_hu_hu_mus_False|78_108 (ssRNA)
RNA: GGGAGUUCUACAGUCCGACGAUCAUAUACCUCCCUGCUUCGGCUCUUGUCCACAGGAAAGAUUCGAAUAGACUUAUCAAAGCUGGCAGACACAAAUUCCUUCCCAGUGGGAGAGUAGUCCACAUCAAGUACUGCAGACACGUGCAACAGAGGAUUGAGCAUCA
B4: 142756116_142757008_2225_CDS_ENSG00000163714_ENST00000493598|human|control|control (ssRNA)
RNA: GGGAGUUCUACAGUCCGACGAUCUUUUGAUGGGGCAACUUUAAAUAUAGGCUCAUUCUUUUUUGAGUCUUCAGUUGCAUCCAAAGGCACUCCAUCAAGAUCAUCAUCAAGACUUUUUAUAGGGACUCCAUCAAGAUCAUCGAUCAACAGAGGAUUGAGCAUCA
B5: chr10:76910771:76910772:+_ENSG00000156671_ENST00000542569|perfect_dup|motif|central (ssRNA)
RNA: GGGAGUUCUACAGUCCGACGAUCCAUGUCAGGCACACGCUCAUGAACAAUAACCAUAAUGAAAGACGUAAACCCAAAUACGGUAAAAACAUAUACACAACUCAGGAUGGUCUUCCAGUACUCUGGGUCCAGUCUUCGAGCAGACAACAGAGGAUUGAGCAUCA
B6: chr10:13251168:13251169:-_ENSMUSG00000019809_ENSMUST00000019945|mus_hu|motif|central (ssRNA)
RNA: GGGAGUUCUACAGUCCGACGAUCAGCCAUAUUGUCUAGAAGUCUACUAAAACCUCGGUUUAAACAGGUAUUCAAAACUGUACGGAAAUCUGGGCUUUCCAACAUGUCUCUAGUUUCAUUGAGAAGUUUAAUAGUGGUAAUGUCCAACAGAGGAUUGAGCAUCA
B7: 169768098_169771791_383_CDS_ENSG00000000460_ENST00000359326|human|control|control (ssRNA)
RNA: GGGAGUUCUACAGUCCGACGAUCAUACAUCAUGUCAUCGAAUAAUUUCACAGUCUUUGGUAACACUUGUGAAAAGAAAGUCUGUUCCAAUGUCAGGUGGUUCAUAUGAGGUAAAAACAUUUCUACAAUAAUUUUCAAAAUUUGCAACAGAGGAUUGAGCAUCA
B8: chr12:17277247:17277248:+_ENSMUSG00000020571_ENSMUST00000057288|mus_mus|motif|central (ssRNA)
RNA: GGGAGUUCUACAGUCCGACGAUCAAUUUGAUGGCGUCAACUCGAUGACAUCAUCACUAGAAGAAUACAGACCGCUGACUGCGGGAAAGAAGGUGCAGCUCACCAGACCGAGCACCAGGCGAGCCAUGCCGAUCACCCGCAUUCCAACAGAGGAUUGAGCAUCA
B9: chr14:103803487:103803488:+_ENSG00000100664_ENST00000558506|hu_mus|hu_hu_hu_mus_True|8_88 (ssRNA)
RNA: GGGAGUUCUACAGUCCGACGAUCGAGUUUAUGAUGUGUGUCAAGCAUGCCUCGAUACCCACAGGCUUUACAAGAAUUACCUAUUGUUUGCUUCUUUGGAUUGACAUGCAGAUCUGUUUCAGGAUUCUCACAUUCAGGACAGAGCAACAGAGGAUUGAGCAUCA
B10: 107682518_107682638_1107_CDS_ENSMUSG00000042590_ENSMUST00000080856|mouse|control|control (ssRNA)
RNA: GGGAGUUCUACAGUCCGACGAUCUGGCUUAUAAGCAUAAUUUUUGACAAUCAUCUUAAUAAGAUUCAUGCACUGGACAAUGAAUCGCUCAAAUGUAACGCCUUCACCAACUUCAGUAAAAACAUAGCUUACAGAAAAUUCCAGCAACAGAGGAUUGAGCAUCA
B11: chr11:837959:837960:+_ENSG00000177697_ENST00000530726|hu_mus|FALSE|FALSE (ssRNA)
RNA: GGGAGUUCUACAGUCCGACGAUCGAUGCCAAUGCCCACCGCCCCAAUGACCCGCAGGUGCUCCUGAAUGAAGGUCUCCAGCUUAGUGAUACAGCCACCCUCCACUUUAUAGAUGUUGGAGGCAUGGUCCCGCUUACCACAGCCCAACAGAGGAUUGAGCAUCA
B12: chr7:116084223:116084224:+_ENSMUSG00000031029_ENSMUST00000033342|mus_mus|FALSE|FALSE (ssRNA)
RNA: GGGAGUUCUACAGUCCGACGAUCUGAGGCCCCUCCCACUUGUUGUAAGUCACUUGAGAGUCCAAUCACCCGGUUGGGGCUAAAACACGUCUUCAUGAUGAGGUCAACUCCAAUGCGUUCAGUGUCAUAAUACGCGUACUUCACCAACAGAGGAUUGAGCAUCA
B13: chr3:119450855:119450856:-_ENSMUSG00000028134_ENSMUST00000029780|mus_hu|mus_mus_mus_hu_False|8_58 (ssRNA)
RNA: GGGAGUUCUACAGUCCGACGAUCUGUGGUGCCACUAAGAGGAGUAUUUGCUGUCUGGACAGCUGUCACAGCUUGAAGAACUACUUGAGCACGUUGGUUUAAUGUAUUAUCUGUCUUUAGUUCUUUGUGAUUGGAGUACUGGAUCAACAGAGGAUUGAGCAUCA
B14: chr14:21319651:21319652:-_ENSMUSG00000021816_ENSMUST00000161445|mus_hu|FALSE|FALSE (ssRNA)
RNA: GGGAGUUCUACAGUCCGACGAUCCUAACAUCUGAAUGAUUGAACAGAACCAUUGCUUCUAGGCUGCAUUGCUUAAUCAAAAACACUUCCAGAACAUUUUAAAAUUUCCUUUGCAUUAAAACAUAAAAAUGAUAGAAAGCCAGCCAACAGAGGAUUGAGCAUCA
B15: chr4:25749455:25749456:-_ENSG00000091490_ENST00000264868|hu_hu|hu_hu_hu_mus_False|48_88 (ssRNA)
RNA: GGGAGUUCUACAGUCCGACGAUCGCACUAUGACCUCUAGAAAAAUCAUUCAAGGAGAAAAAUGUAAACCAAUGUACAAUGUUAUCGCCCUCCCUGCGUGUGGAGUGUUUGUCUCAAGGCUCCUUCUAGCUGCUGGAUUUGGGACAACAGAGGAUUGAGCAUCA
B16: chr1:58468927:58468928:-_ENSMUSG00000026034_ENSMUST00000148330|mus_mus|mus_mus_mus_hu_False|8_78 (ssRNA)
RNA: GGGAGUUCUACAGUCCGACGAUCAAUUACUGAAAAAGAUGUUCAUUACCUUAGCUAGGCCAUGUAUGAACCAAAUUACCCAAACAAAAUAAACAUGGCAAUAUAAAAAUGUUAAGAAUUUACAAAGAUUAAAAGCUUAACUUACAACAGAGGAUUGAGCAUCA
B17: 21559051_21559171_2039_CDS_ENSG00000165804_ENST00000421093|human|control|control (ssRNA)
RNA: GGGAGUUCUACAGUCCGACGAUCCCCCGGCCCAGCACCGCUAGAAGGAGGCCGGGGACUUGAGGCGCCCUCCACCCAGGUCGCAGGCUGCGGAGACGGCUUGGCUCCAGAUUGCGGGGCCGAACCCCGCUGGGAAGGAGGCGGCAACAGAGGAUUGAGCAUCA
B18: chr6:51416610:51416611:-_ENSMUSG00000004980_ENSMUST00000090002|perfect_dup|FALSE|FALSE (ssRNA)
RNA: GGGAGUUCUACAGUCCGACGAUCCCUAUCGGUAAUUAUUUCAAUAGUAUCAAUUUUUCCAUACUCUUCAAAGUAAUCUCUAAGGUGGUGUUCCUCAGUAUCUUCCUUAAUUCCACCAACAAACAGCUUCUUCACAGUCACAUGCAACAGAGGAUUGAGCAUCA
B19: chr15:11913776:11913777:-_ENSMUSG00000022205_ENSMUST00000022816|mus_hu|FALSE|FALSE (ssRNA)
RNA: GGGAGUUCUACAGUCCGACGAUCGCCACAACAGUUAAGAUUGUAUUACUUGAUUUUAUUUUACACUAGGUGGUGGGCAGACAAAGUAAUCCUUAAUAAAGUUGACAAUUAGCUUCACUCAAUAUUUUUAAUAAUGCACAUUAACAACAGAGGAUUGAGCAUCA
B20: 123687827_123694627_1436_3pUTR_ENSG00000051825_ENST00000606320|human|control|control (ssRNA)
RNA: GGGAGUUCUACAGUCCGACGAUCGUGAGAUUCCUCUCAGGUAACUGCUUGUUUUCCCUUUGUUUUUUAUAAUAAAUAUCCUUCAGUGACGGUAGCUUCAUCUCAUUACUAGUAUUAGACUGGUUUGGUGACACAUCUGUGGAACAACAGAGGAUUGAGCAUCA
B21: 114483548_114483668_835_3pUTR_ENSG00000163349_ENST00000369558|human|control|control (ssRNA)
RNA: GGGAGUUCUACAGUCCGACGAUCCAAGAUUUUAAUAGCCACAAUUUCCUUGGUGCUCCUCUUCCAGCACUUAGCCACCUGUCCAAAUGUCCCCCGGCCUAGGAACUCCAAGACUUCAUAGCUAUUGGUCAUAGAGCAAAGGAUCAACAGAGGAUUGAGCAUCA
B22: chr7:7679991:7679992:-_ENSG00000106399_ENST00000396682|hu_hu|hu_hu_hu_mus_False|48_88 (ssRNA)
RNA: GGGAGUUCUACAGUCCGACGAUCUGGGAUGAAUCUUUUCCAGCUUCCCUACGAAGCACACGGGCCGGUCGAUAUACUGUGGUAACAUGCCGGCGUUGACGCGCGCUUUGGGGAGCUGCAUUAUGUCCUCCAUGAUUCUGCCGCCAACAGAGGAUUGAGCAUCA

The other results are listed elsewhere or left out.

The experiment addresses T1, UNK ZnF1-3 (human, UniProt Q9C0B0 31-174).
T1 sequence: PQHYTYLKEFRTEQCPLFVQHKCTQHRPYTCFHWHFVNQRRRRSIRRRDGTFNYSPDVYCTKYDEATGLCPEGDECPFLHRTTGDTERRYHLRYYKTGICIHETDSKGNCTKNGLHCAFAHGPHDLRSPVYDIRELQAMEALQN
Put plainly: nsRBNS (natural sequence RNA bind-n-seq); RBNS binding buffer (assumed for nsRBNS): 25 mM Tris pH 7.5, 150 mM KCl, 3 mM MgCl2, 0.01% Triton X-100, 500 ug/ml BSA, 20 U/ml SUPERase-In, 4 C; UNK is unkempt and MSI1 is Musashi-1; names of the RNAs are library labels; protein concentration not given here; high values mean tight binding.
Molecule B1 had a binding signal of 0.421 enrichment R.

The molecule B2 had a binding signal of 0.77 enrichment R.

Molecule B3 had a binding signal of 1.04 enrichment R.

As to B4, the binding signal worked out at 0.794 enrichment R.

Turning to B5, the binding signal was 1.05 enrichment R.

As for B6, the binding signal stood at 1.29 enrichment R.

As for B7, the binding signal was 1.71 enrichment R.

As for B8, the binding signal worked out at 0.269 enrichment R.

Molecule B9 yielded a binding signal of 1.36 enrichment R.

As for B10, the binding signal was 1.1 enrichment R.

The molecule B11 registered a binding signal of 1.17 enrichment R.

As for B12, the binding signal was found to be 0.9 enrichment R.

B13: the binding signal was found to be 0.971 enrichment R.

In turn, B14 yielded a binding signal of 1.29 enrichment R.

On to B15, for which the binding signal was determined as 1.02 enrichment R.

Take B16: the binding signal is 0.814 enrichment R.

Take B17: the binding signal worked out at 0.72 enrichment R.

Molecule B18 showed a binding signal of 1.05 enrichment R.

B19: the binding signal was 1.93 enrichment R.

Regarding B20, the binding signal was 0.987 enrichment R.

B21 came in with a binding signal of 0.56 enrichment R.

On to B22, for which the binding signal is 0.421 enrichment R.
